Results as given in PubChem BioAssay AID488969 (Vanderbilt High Throughput Screening Facility, 2010).
Whole data set: some 110,000 compounds, median “z-score” near -0.1, cut for the highest 2% near 2. Some of the results follow.

The compounds below were run against Metabotropic glutamate receptor 8 (Rattus norvegicus) (UniProt P70579) (assay: rat mGluR8 modulators via GIRK flux, primary screen, cell-based, thallium flux, HTS (AID 488969)). Conditions: HEK293 rat mGluR8, GIRK (G protein-gated inwardly rectifying potassium channel) thallium flux, FluoZin2; at 10 µM; stronger effect = higher value; submaximal glutamate (EC20) added with thallium.
UniProt P70579, sequence (P70579 whole entry, looked up): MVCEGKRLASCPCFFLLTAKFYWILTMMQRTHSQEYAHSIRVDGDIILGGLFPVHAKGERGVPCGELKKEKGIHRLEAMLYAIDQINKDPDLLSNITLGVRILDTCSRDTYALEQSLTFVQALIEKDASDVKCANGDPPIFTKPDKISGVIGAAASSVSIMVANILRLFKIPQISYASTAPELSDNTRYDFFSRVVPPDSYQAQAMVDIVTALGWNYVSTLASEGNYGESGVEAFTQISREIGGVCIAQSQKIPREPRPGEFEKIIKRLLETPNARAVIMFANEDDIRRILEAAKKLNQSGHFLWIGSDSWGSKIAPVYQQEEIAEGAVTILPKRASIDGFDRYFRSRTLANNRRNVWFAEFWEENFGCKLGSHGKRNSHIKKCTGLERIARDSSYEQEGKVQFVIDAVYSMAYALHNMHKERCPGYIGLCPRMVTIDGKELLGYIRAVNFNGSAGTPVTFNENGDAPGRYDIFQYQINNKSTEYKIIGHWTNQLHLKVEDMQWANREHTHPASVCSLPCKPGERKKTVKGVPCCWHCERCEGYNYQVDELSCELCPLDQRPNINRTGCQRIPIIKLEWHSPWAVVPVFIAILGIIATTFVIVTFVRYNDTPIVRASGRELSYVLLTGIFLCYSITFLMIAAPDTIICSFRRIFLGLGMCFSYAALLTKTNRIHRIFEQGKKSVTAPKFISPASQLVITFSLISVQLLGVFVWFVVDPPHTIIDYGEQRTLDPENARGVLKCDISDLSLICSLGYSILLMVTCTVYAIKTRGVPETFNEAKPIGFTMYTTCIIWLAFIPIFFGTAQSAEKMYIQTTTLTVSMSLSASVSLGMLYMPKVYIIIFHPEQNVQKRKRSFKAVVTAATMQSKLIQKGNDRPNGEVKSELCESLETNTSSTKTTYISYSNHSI
Work on `CN1CCN(c2nc(-c3ccccc3)c3cc(Cl)ccc3n2)CC1` yielded a z-score of -0.517.
For `CCN(CC)c1ccc(/C=c2/sc3nnc(-c4ccccc4C)n3c2=O)cc1`, the z-score was -0.244.
`O=[N+]([O-])c1ccc(NC(=S)NCCc2ccccc2)cc1` was tested, and the z-score was 2.91.
`CCCCNC(=O)Nc1ccccc1C(=O)Nc1ccc(OC)cc1` gave a z-score of 0.159.
With `COCc1cc(=O)n2[nH]c(-c3ccsc3-n3c(C)ccc3C)cc2n1` the z-score was 0.922.
Work on `COCCN(Cc1cc2cc3c(cc2[nH]c1=O)OCO3)C(=O)c1cccs1` yielded a z-score of -0.16.
For `O=C(Cn1nc(C(F)(F)F)cc1C1CC1)Nc1ccccc1F`, the z-score was -0.173.
For `CCc1cccc(CC)c1NC(=O)COC(=O)c1ccc2c(c1)S(=O)(=O)c1ccccc1C2=O`, the z-score was -0.326.
`Cc1cc(Cl)c(S(=O)(=O)NCc2ccccc2)cc1OCC(N)=O` gave a z-score of -0.00164.
With `Cc1nn(CC(O)Cn2c3c(c4ccccc42)CCN(C)C3=O)c(C)c1Br` (stereo not drawn) the z-score was -0.0185.
Compound `Cc1cc(F)ccc1NCC(=O)Nc1ccc(Br)cc1C` has a z-score of -0.568.
With `CCC(=O)Nc1c(C(=O)Nc2cccc(OC)c2)oc2ccccc12` the z-score was -0.158.
`CCOC(=O)C1CCN(C(=O)Cc2ccc(OC)c(OC)c2)CC1` gave a z-score of -0.0395.
With `Cc1cc(C)c(NC(=O)c2ccc(S(=O)(=O)N3CCOCC3)cc2)c(C)c1` the z-score was 0.0702.
In the case of `Oc1cccc(/C=N/Nc2ncnc3c2ncn3Cc2ccccc2)c1`, the z-score is reported as -0.119.
Compound `O=C(NCc1ccc(OC(F)(F)F)cc1)C1CC(c2c(Cl)cccc2Cl)=NO1` (stereo not drawn) has a z-score of -0.0614.
Work on `COC(=O)C1=C(N)Oc2cc(C)n(CCN3CCOCC3)c(=O)c2C1c1cccnc1` (stereo not drawn) yielded a z-score of 0.0516.
Work on `C=CCn1c(SCc2c(C(=O)OC)sc(N)c2C(=O)OC)nnc1-c1ccc(Cl)cc1` yielded a z-score of -0.846.
In the case of `Cc1cccc(NC(=S)N(CCCN2CCOCC2)Cc2ccccn2)c1`, the z-score is reported as 0.37.
`NC(=O)CSc1nnnn1CC(CC(=O)O)c1ccccc1` (stereo not drawn) showed a z-score of 0.894.
`Cc1ccc2nc(C(O)C(O)c3nc4ccc(C)cc4[nH]3)[nH]c2c1` (stereo not drawn) was tested, and the z-score was -0.307.
`CC1Sc2ccccc2N(CC(=O)N(C(C)C)C(C)C)C1=O` (stereo not drawn) was tested, and the z-score was 0.406.
In the case of `CCN1CCN(C(=O)CN(Cc2ccccc2)S(C)(=O)=O)CC1`, the z-score is reported as 0.371.
With `O=C(/C=C/c1ccc(Cl)cc1)c1cccnc1` the z-score was 0.357.
In the case of `COc1ccc(C)cc1NC(=O)CSc1nnnn1Cc1ccccc1`, the z-score is reported as -0.544.
`Cc1cccc(C(C)(C)C)c1OCCCCN1CCCC1` showed a z-score of 2.48.
In the case of `O=C1Nc2ccc(S(=O)(=O)N3CCCCCC3)c3cccc1c23`, the z-score is reported as -0.375.
For `COc1ccccc1CNC(=O)C(NS(=O)(=O)c1ccc2c(c1)oc(=O)n2C)C(C)C` (stereo not drawn), the z-score was 0.236.
For `CCS(=O)(=O)Nc1ccc(C2=NN(S(=O)(=O)c3ccc(F)cc3)C(c3ccco3)C2)cc1` (stereo not drawn), the z-score was 0.14.
`COc1cc(-c2nc(-c3ccncc3)no2)cc(OC)c1OC` showed a z-score of -0.0284.
Work on `Cc1cccc(OCC(=O)NCCN2CCOCC2)c1` yielded a z-score of -0.218.
Work on `O=S1(=O)CC(O)C(N2CCCCC2)C1` (stereo not drawn) yielded a z-score of 0.12.
Work on `Cn1cc(-c2nc3ccccc3[nH]2)c2ccccc21` yielded a z-score of -1.41.
`CCCc1nc(SCC(=O)Nc2cc(Cl)ccc2OC)c2c(=O)n(C)c(=O)n(C)c2n1` was tested, and the z-score was 0.111.
In the case of `CCOc1ccc(NS(=O)(=O)c2ccc(SC)cc2)cc1`, the z-score is reported as -0.406.
Compound `Clc1ccc(-c2nc3ccccn3c2CN2CCOCC2)cc1` has a z-score of -0.131.
Work on `Cc1ccccc1C(=O)Nc1c(C(=O)N2CCCC2)cnn1-c1ccccc1` yielded a z-score of 0.78.
Work on `Fc1cccc(Cl)c1CSc1nnc(COc2cccc3cccnc23)o1` yielded a z-score of -0.675.
For `CCc1nnc(NC(=O)CSc2nc3ccccc3s2)s1`, the z-score was -0.228.
For `Brc1c(CSc2nc3ccccc3o2)nc2ncccn12`, the z-score was 0.922.
Work on `COCCNC(=S)N/N=C(\C)c1cccc([N+](=O)[O-])c1` yielded a z-score of -0.0589.
`CCCCOc1c(Br)cc(/C=N/O)cc1OCC` showed a z-score of 2.8.
Work on `COc1cc(C(=O)Nc2nc3ccc4nc(C)sc4c3s2)cc(OC)c1OC` yielded a z-score of 0.0225.
Work on `N#CC1=C(N)C(C#N)(C#N)C(c2cccnc2)C2CC(c3ccccc3)CC=C12` (stereo not drawn) yielded a z-score of -2.19.
With `CCOC(=O)N1CCN(C(=O)CCSc2ccc(C)cc2)CC1` the z-score was 0.222.
Compound `CC(=O)Nc1ccc(S(=O)(=O)Nc2nc3ccccc3nc2Sc2nncn2C)cc1` has a z-score of 0.338.
Compound `CCn1c(C)nc2cc(C(=O)OC(C(F)(F)C(F)F)C(F)(F)C(F)F)ccc21` has a z-score of 0.0729.
`O=C(COC(=O)Cc1ccsc1)NCc1ccc(Cl)cc1` was tested, and the z-score was -0.335.
Work on `Cc1ccc(-n2c(-c3ccccc3)n[nH]c2=S)cc1` yielded a z-score of 0.357.
Compound `O=C(NC1CCCCC1)c1ccccc1NC(=O)C1CC1` has a z-score of 0.156.
`CCc1c(C)nc2ncnn2c1NCc1cccs1` gave a z-score of -0.291.
Compound `O=C(Cn1c(NCCCO)nc2ccccc21)c1ccc(Br)cc1` has a z-score of -0.528.
For `CCOc1nc(C)ccc1-c1noc(-c2ccncc2)n1`, the z-score was 0.775.
`Cn1c(CN2CCCC2)nc2cc(NC(=O)c3ccco3)ccc21` was tested, and the z-score was 0.286.
Compound `CCCc1nn(C)c(C(=O)Nc2ccc(C(C)(C)C)cc2)c1Cl` has a z-score of -0.136.
`CCOCCn1c(=NC(=O)/C=C/c2ccccc2Cl)sc2cc(NC(C)=O)ccc21` showed a z-score of 0.0288.
`COCC(=O)Nc1nc2ccccc2s1` gave a z-score of 0.294.
For `CSc1oc(-c2ccco2)nc1S(=O)(=O)c1ccccc1`, the z-score was 0.155.
`Cc1nnc(SCc2ccc(CC(=O)O)cc2)o1` was tested, and the z-score was -0.59.
`CCC(C)NC(=O)Cn1c(COc2ccc(Cl)cc2Cl)nc2ccccc21` (stereo not drawn) was tested, and the z-score was -2.32.
With `CCC1CCCCN1S(=O)(=O)c1ccc(C(=O)Nc2nnc(-c3cccs3)o2)cc1` (stereo not drawn) the z-score was 0.233.
`Cc1ccc(Cl)cc1N1CCN(C(=O)c2cn(C)c(=O)c3c2c2ccccc2n3C)CC1` showed a z-score of 0.0829.
Compound `Cc1c(Cl)cccc1NC(=S)N1CCN(Cc2ccc3c(c2)OCO3)CC1` has a z-score of 0.334.
Work on `COC(C)(C)c1cc(C(C)(C)C)nc(N)n1` yielded a z-score of 0.189.
`COC(=O)c1ccccc1NC(=O)COc1ccc(S(=O)(=O)N2CCCC2)cc1C` showed a z-score of -0.752.
In the case of `CCOC(=O)c1cc2c(=O)n3ccccc3nc2n(C(C)C)c1=NC(=O)c1c(-c2c(F)cccc2Cl)noc1C`, the z-score is reported as 0.205.
Compound `CC1CCCCC1NC(=O)COC(=O)COc1ccc(Cl)cc1` (stereo not drawn) has a z-score of -0.238.
`Cc1cc2cc3c(cc2nc1SCc1ccccn1)OCCO3` gave a z-score of 0.0708.
`Cc1ccc(S(=O)(=O)C2(C(=O)N3CCCC(C)C3)CC2)cc1` (stereo not drawn) gave a z-score of -0.0386.
Work on `COc1ccc(Cl)cc1-c1nc(-c2ccncc2)no1` yielded a z-score of 0.768.
`CCCCCn1c(CN2CCN(C(=O)OCC)CC2)nc2c1c(=O)[nH]c(=O)n2C` gave a z-score of 0.29.
`O=C(NCCSc1ccc(Cl)cc1)c1ccco1` gave a z-score of -0.0895.
Compound `O=C(NC1CCCCCCC1)c1ccccc1O` has a z-score of 0.244.
For `CC1CC(=O)Nc2ccccc2N1S(=O)(=O)c1ccc(Br)cc1` (stereo not drawn), the z-score was -0.323.
`CC(=O)c1ccc2cccc3c2c1N=CN3C` showed a z-score of -0.158.
Work on `Cc1ccc(-c2cc(C(=O)NCCN3CCOCC3)no2)cc1` yielded a z-score of -0.195.
Compound `CCn1c(O)c(C=Nc2ccccc2)n(-c2ccccc2)c1=S` has a z-score of -0.533.
Compound `O=C(NCCC1=CCCCC1)C1CCCN(S(=O)(=O)c2cnc[nH]2)C1` (stereo not drawn) has a z-score of 1.49.
In the case of `CCOC(=O)c1sc(NC(=O)c2ccc(CC)s2)nc1C`, the z-score is reported as -0.469.
`CCC(CC)C(=O)NCCNC(=O)C(CC)CC` gave a z-score of 0.00489.
`COc1ccccc1NC(=O)CSc1nnc(-c2ccncc2)n1CC1CCCO1` (stereo not drawn) showed a z-score of -0.345.
`CCCc1nccn1S(=O)(=O)c1cc(OC)ccc1OC` was tested, and the z-score was 0.149.
`CCOc1cccc2cc(C(=O)Nc3cc(C)on3)c(=O)oc12` showed a z-score of -0.339.
`N#Cc1c(-c2ccccc2)nc(SCc2nc(N)nc(N3CCCCC3)n2)[nH]c1=O` was tested, and the z-score was -0.874.
`Cc1ccc(NC(=O)Cc2nnc(SCC(=O)c3ccc(Br)cc3)n2C)cc1Cl` gave a z-score of 0.859.
With `Cc1cccn2c(=O)c(C=NCc3ccco3)c(Nc3ccc(SC(F)F)cc3)nc12` the z-score was -0.136.
Compound `CC(C)(C)c1ccccc1OCCCCN1CCCC1` has a z-score of 2.06.
For `CCC(C)(CC(=O)N(C)CCC#N)c1ccccc1` (stereo not drawn), the z-score was -0.0613.
`Cc1ccc(C)c(Nc2nc3nonc3nc2N2CCOCC2)c1` gave a z-score of 0.382.
For `CCOC(=O)CSC1=N/C(=C\c2cc(OC)c(OC)c(OC)c2)C(=O)N1C`, the z-score was -0.241.
Compound `CC1CCC(C(C)C)C(OCC(O)CN2CCN(Cc3ccccc3)CC2)C1` (stereo not drawn) has a z-score of 0.223.
Work on `CCN1CCN(C(=O)C2CCN(C(=O)c3cc4sccc4n3CC)CC2)CC1` yielded a z-score of 2.56.
`O=C(Nc1ccccc1)c1ccc(NCC2CCCO2)c(S(=O)(=O)N2CCOCC2)c1` (stereo not drawn) showed a z-score of -0.736.
In the case of `C=C(C)Cn1c(SCC(=O)O)nnc1-c1ccc(OC)cc1`, the z-score is reported as 0.199.
For `CCCOc1ccc(/C=C2\SC(=S)N(CC3CCCO3)C2=O)cc1` (stereo not drawn), the z-score was 0.0404.
`CS(=O)(=O)N1Cc2ccccc2CC1C(=O)Nc1ccccc1C(N)=O` (stereo not drawn) showed a z-score of 0.539.
`Cc1ccc(C2(C)NC(=O)N(CC(=O)Nc3c(C)n(C)n(-c4ccccc4)c3=O)C2=O)cc1` (stereo not drawn) gave a z-score of -0.208.
With `Cc1ccc(NC(=O)c2cn(CCC#N)nc2-c2cccs2)c([N+](=O)[O-])c1` the z-score was -0.0985.
For `CCc1ccc(C(=O)/C=C/c2ccc([N+](=O)[O-])o2)cc1`, the z-score was 0.113.
For `O=C(c1ccccc1-c1nc(-c2ccc(Cl)cc2)no1)N1CCCC1`, the z-score was -0.446.
Work on `O=C(Oc1cccc(NC(=O)c2ccco2)c1)c1cccc(S(=O)(=O)N2CCCCC2)c1` yielded a z-score of -0.064.
For `CC(CNCC1CCCO1)COc1ccccc1` (stereo not drawn), the z-score was 0.0848.
Compound `CC(C)(C)Nc1nc(N2CCCC2)nc(N2CCCC2)n1` has a z-score of -0.14.
In the case of `CCCOc1ccc(C(=O)C(CCC(CNCC)C(=O)c2ccc(OCCC)cc2)CNCC)cc1` (stereo not drawn), the z-score is reported as 1.9.
Compound `CCOC(=O)c1cc(C)sc1N1C(=O)C2C3C=CC(C3)C2C1=O` (stereo not drawn) has a z-score of -0.94.
`O=C(c1ncc[nH]1)c1ccco1` gave a z-score of -2.2.
Work on `CC1CCN(C(=S)NCCc2ccccc2)CC1` yielded a z-score of -0.0312.
Work on `O=[N+]([O-])c1cc(-c2nc3nc4ccccc4nc3n2CCc2ccccc2)cc([N+](=O)[O-])c1` yielded a z-score of -0.354.
For `Cc1ccccc1C(=O)NNC(=O)C(=O)N1CCCCC1`, the z-score was -0.181.
For `COc1ccc(CN(CCN(C)C)Cc2ccccc2)c(OC)c1`, the z-score was -0.114.
`O=c1nc(Nc2ccccc2)sc2ccc([N+](=O)[O-])cc12` was tested, and the z-score was 0.119.
Work on `CN(C)CCCSc1nc(-c2ccccc2)nc2c1CCC2` yielded a z-score of 0.263.
With `Cc1nn(-c2ccccc2)c(N)c1N=Nc1ccc(Cl)cc1` the z-score was -0.172.
